± gives the standard deviation of the averaged measurements. The list shows a part of the results.
What follows are sequences tested on PfAP2-I AP2 domain 3 (GST-tagged) (assay: gcPBM binding intensity (ln(normalized median fluorescence intensity)); higher = stronger DNA binding).
Outline: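 The highest Masliner-normalised natural-log median intensity across replicate spots of either probe orientation is reported as binding intensity. GST-tagged P. falciparum DNA-binding domains expressed in E. coli were applied for 1 h to an Agilent 4 × 180k array of primer-extended double-stranded 36-bp intergenic genomic probes plus negative controls, and bound protein was detected with Alexa488 anti-GST antibody and scanned at 488 nm.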

Sequence	gcPBM binding intensity (ln)
AATAATTAAAATTATCTACACACCTTTATAAATATA [CACACA_site9300]	7.54 ± 0.61
AATTTAAACAAGGATCCACACACCCCAAAAAAAAAA [CACACA_site8125]	8.88 ± 0.19
CCTGAACACATACATACACACACACTAATAAAAAAA [CACACA_site8023]	8.13 ± 0.29
GCCATTAATTTATACACACACATTATGATTTTTTAT [CACACA_site754]	8.14 ± 0.65
AAAATGTGCCCACGCGTACACACAAAAAAAGAAAAA [CACACA_site2004]	8.455 ± 0.035
TACAAACTATGATGCACACATATATATATGTATACA [CACACA_site1226]	9.21 ± 0.15
ATGCATATGTTTATTGCACACACCAAAAAGAAAACA [CACACA_site403]	10.2 ± 0.38
AAAAAAAAAAAAACATGTACATAAATGTAAAAAAGT [XGTACX_site8158]	8.09 ± 0.52
AACATACACATATACACACACACATATATACATATA [CACACA_site1093]	8.21 ± 0.3
ATTTTTTTTCTTTTTTTTTTACATTTTTTTCTTTTT [CACACA_negctrl_site1289]	7.5 ± 0.71
AATTAAGTTAAACATTAAAAAAAACAAAAAATTAAA [CACACA_negctrl_site1333]	7.42 ± 0.46
ACATATAAAATGTATACACACAAATATTACAGAGAT [CACACA_site4920]	8 ± 0.59
GCTTTTGAAAATATACACATGTTAGGAATACAGGGG [TGCATGCA_negctrl_site480]	8.6 ± 0.39
TATAATAACAATTTAGTGCATATAATAATATTTTAT	10 ± 0.19
ATATATACATATATATGTACGTATATTTTTATTTCT [XGTACX_site6198]	7.94 ± 0.52
ATTTAACAACTTCAAACACACAATATAGATTTATAT [CACACA_site7067]	7.6 ± 0.54
TATAAACCCACCTACACACACAACGTAAATGCATTG [CACACA_site2238]	8.23 ± 0.49
TGTGGGAATAACCACACACACACACGCATATAAATA [CACACA_site7634]	7.97 ± 0.5
CTCATAAAAATAACGTTAACATAAATTTATTGTGAT [XGTACX_negctrl_site169]	7.7 ± 0.53

Sequence	gcPBM binding intensity (ln)
TTTTCATATGAACAATGTACACATCGTATAATTCTG [XGTACX_site4756]	7.8 ± 0.53
TGAACAGACGAGCACACACACACATATATATATATA [CACACA_site1019]	9.6 ± 0.45
ATACATATTAAAGGATGTACACTTATATTTTTTAGA [XGTACX_site5406]	7.75 ± 0.25
AATATAAAACATATCACACATATGTATTTATGTATA [CACACA_site5763]	7.58 ± 0.31
TATATGTCAATATCTACACACATATATATAATTATT [CACACA_site3156]	7.61 ± 0.43
TTTATATTATTTTAAACATGCACAAGTATAATTTAT [TGCATGCA_site233]	8.25 ± 0.52
TAAATTTAGAAACACACACACATATATATATATATA [CACACA_site847]	9.36 ± 0.38
TGTTCTCTTCTTTTTTATTTTCCAAAGTAATAAGTT [TGCATGCA_negctrl_site424]	7.84 ± 0.69
TATATATATTTATATGCATGTAATATATTTGTATTG [TGCATGCA_site323]	8.47 ± 0.64
CATAAATCAGCCATAACACACATACATAAATACATA [CACACA_site4380]	7.83 ± 0.46
TTAATTATAATTATATGTACGAACTTTTTTTTTTTT [XGTACX_site6586]	7.66 ± 0.25
AGAAAAAAGAGGGATACACACAAACATATATATATA [CACACA_site5269]	9.285 ± 0.049
AATTATTTTATGAAAAGTACACATTGTTTTAATTCT [XGTACX_site4506]	7.82 ± 0.38
TAAATAAGTATTACTAGTACACACAAGTTGTTAATC [XGTACX_site7074]	7.9 ± 0.45
CATTTTTTAATAATAGCACACAGGACATACAAAACA [CACACA_site1245]	8.53 ± 0.34
ACAGTATCTGGTAGCTGTACGAGTCGTAGAGTGTAG [XGTACX_site2011]	8.23 ± 0.65
AATATATAAATAAATATATAAATAAATAATTGAAGC [CACACA_negctrl_site348]	7.75 ± 0.59
TTCATTAATGTGTAATGTACTTGTAATATGGGATTA [XGTACX_site3903]	7.76 ± 0.23
AAAATATAAAGTATTTGTACATAATATATTTTTAAA [XGTACX_site3494]	7.39 ± 0.35

Sequence	gcPBM binding intensity (ln)
TTATATTTCAATTAAACATGCATTTTTGTGTAGCAC [TGCATGCA_site214]	8.04 ± 0.76
TCATATAGATTATACACACACATATATAGATATATA [CACACA_site6587]	7.79 ± 0.4
TTATATATTTTATTATTTATAATCTTTTTTTTATTT [CACACA_negctrl_site112]	7.36 ± 0.49
CAAAAGCGATACGGCACACATTTCCTGTTTAAATGA [CACACA_site5519]	8.93 ± 0.11
TTAATTTTTAGAAGAACACACACATATATATTATGA [CACACA_site7969]	7.49 ± 0.63
AAATTGATTATAAATTGTACAAGAACATACAACCTT [XGTACX_site5986]	7.53 ± 0.67
TTTATTTATTATTAAAGTACTAAATCATATAATTAT [XGTACX_site5727]	7.5 ± 0.45
AAATTAAAAAAATAATGTACATGTATTTATTATGTA [XGTACX_site2419]	7.66 ± 0.35
TTTCTGTGTTTTGGTTGTACACACGCTACATTATAT [XGTACX_site5669]	8.53 ± 0.67
TTGTTTTTTTTTTCTATAAGCATAAAAATGATATAA [XGTACX_negctrl_site356]	7.66 ± 0.25
TAAAACAATACTTTGTGCTTCTCTGGTTTTTTTTTT [GTGCAC_negctrl_site284]	7.62 ± 0.76
GCTTTTAAAATAATTGGTACACATGTATAAATTCAA [XGTACX_site2327]	7.89 ± 0.57
AGTATTCACTTAATATGTACATATTTATTATAAGAG [XGTACX_site3434]	7.99 ± 0.28
TTTTATTTCTTTGCACCATTTTAAATACAAACAAAT [CACACA_negctrl_site1553]	11.1 ± 0.79
TTTTGCCTTTCTACTTGTACTTAAAATATTATAATT [XGTACX_site5483]	8.37 ± 0.66
TGGTATATAAAACACACACACATATGTATTTATATA [CACACA_site4665]	7.79 ± 0.53
ACTCCATAATATTGATGTACTATAATGCATTTATTT [XGTACX_site5562]	8.15 ± 0.83
TTATAGAATTTATTTACACACAAACATTTATACTTT [CACACA_site7592]	7.88 ± 0.39
